# Test results published in PubChem BioAssay (NCATS).
# The shares of active, inactive and inconclusive entries below differ from those in the screen. For some of these results: No potency is given beside an inconclusive call; the fits are too rough. Calls of active or inactive are those of the source. Unless noted, calls come from the whole dose curve; as a rule, active = well fitted curve in the direction sought with a large enough effect; inconclusive = small, poorly fitted or top-dose-only effect, or another doubt; inactive = no such curve, though single readings can be large; an effect the other way counts as inactive or inconclusive.
# Assays:
# [1] = test system: Zika virus NS2B-NS3 protease (linked construct); assay: Primary screen NINDS Rhodamine qHTS for Zika virus inhibitors (AID 1347160); note: potency is the fitted concentration of half-maximal effect; nearly all actives have a fitted effect of over 55% in size
# Method in brief: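 Kinetic fluorescence (Ex 480 nm, Em 540 nm) over 15 min with 1.5 microM Rhodamine110 peptide and 25 nM linked protease.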
# [2] = test system: Zika virus NS2B-NS3 protease (linked); assay: 384 well plate NINDS AMC confirmatory qHTS for Zika virus inhibitors (AID 1347163); note: potency is the fitted concentration of half-maximal effect; nearly all actives have a fitted effect of over 50% in size
# Method in brief: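 Linked NS2B-NS3 protease (final 5 nM, 30 nM or 60 nM) was preincubated with compounds (final up to 1 mM) for ~15 minutes. Ac-VKTGKR-AMC substrate (final 30 microM) then reacted for 25 minutes at room temperature in the dark. Fluorescence (ex 355/em 460 nm) was normalized to no-enzyme and no-inhibitor controls.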
# [3] = test system: Zika virus NS2B-NS3 protease (linked construct); assay: 384 well plate NINDS Rhodamine confirmatory qHTS for Zika virus inhibitors (AID 1347164); note: potency is the fitted concentration of half-maximal effect; nearly all actives have a fitted effect of over 65% in size
# Method in brief: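 Compounds are incubated about 15 minutes with linked protease (5, 30 or 60 nM final). Rhodamine 110-tagged Ac-LKRR substrate (10 microM final) is added and fluorescence measured after 25 minutes.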
# [4] = Tertiary RLuc qRT-PCR qHTS assay for Zika virus inhibitors (AID 1347169); note: potency is the fitted concentration of half-maximal effect; nearly all actives have a fitted effect of over 55% in size
# Method in brief: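 Orthogonal cell-based infection assay using recombinant ZIKV-RLuc (Cambodian) in Vero cells; compound added prior to virus at MOI 1-2. Incubation lasts 48-72 hrs at 37 degrees C before live-cell Renilla substrate is added and luminescence measured.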
# [5] = Primary qHTS for inhibitors of nuclear receptor binding SET domain protein 2 (NSD2) in an isogenic RCH-ACV NSD2 p.E1099K mutant (9B) (AID 1645876); conditions: activity change, negative = viability loss: at 44.9 µM (top of the series) unless noted; note: nearly all actives have a fitted effect of over 70% in size; note: potency is the fitted concentration of half-maximal effect; for activity change, negative = viability loss: % is set by controls: 0 for no effect and ±100 for the full control effect
# [6] = Primary qHTS for inhibitors of nuclear receptor binding SET domain protein 2 (NSD2) in an RCH-ACV wild type WT cells (2C) (AID 1645877); conditions: activity change, negative = cell killing: at 44.9 µM (top of the series) unless noted; note: potency is the fitted concentration of half-maximal effect; nearly all actives have a fitted effect of over 70% in size
# [7] = molecular target: Phospholipid hydroperoxide glutathione peroxidase GPX4 (Homo sapiens) (UniProt P36969); assay: Primary qHTS Assay for Inhibitors of Recombinant Selenoprotein Glutathione Peroxidase 4 (GPX4) (AID 1845192); conditions: activity change, negative = inhibition: at 50 µM (top of the series) unless noted; note: potency is the fitted concentration of half-maximal effect; nearly all actives have a fitted effect of over 65% in size
# Sequence of UniProt P36969 (P36969 whole entry, looked up): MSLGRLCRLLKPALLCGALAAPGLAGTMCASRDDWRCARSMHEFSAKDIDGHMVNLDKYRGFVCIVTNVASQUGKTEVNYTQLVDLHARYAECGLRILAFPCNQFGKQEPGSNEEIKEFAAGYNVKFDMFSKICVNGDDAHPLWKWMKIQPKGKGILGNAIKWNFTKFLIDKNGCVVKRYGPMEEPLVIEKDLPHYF
# Method in brief: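 NADPH consumption, followed by fluorescence at 340/450 nm between 0 and 15 min, reports GPX4 activity via coupled glutathione reductase (100 nM). Enzyme 200 nM was pre-exposed to compound 30 min; 0.5 mM cumene hydroperoxide and 1 mM GSH served as substrates.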
# [8] = Primary fluorescence-based thiol-reactive (MSTI) qHTS assay for identification of artifact compounds. (AID 1845221); note: potency is the fitted concentration of half-maximal effect;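 note: thiol-reactive compounds lower the probe fluorescence signal; nearly all actives have a fitted effect of over 65% in size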
# Method in brief: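 One-hour, room-temperature, dark incubation of compound with 4 uM MSTI in PBS (pH 7.4, 2% DMSO) precedes a fluorescence read at 525 nm excitation, 598 nm emission; Hill-equation fitting yields concentration-response values.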
# PA-1 = assay: Primary qHTS to identify gynecologic anti-cancer compounds using libraries of approved drugs and bioactive compounds (AID 1345084); conditions: Gynecologic cancer cell panel viability, ATPlite luminescence, 48 h; series mostly up to 57.5 µM; note: % is set by controls: 0 for no effect and ±100 for the full control effect; nearly all actives have a fitted effect of over 55% in size
# Method in brief: (§1)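 In this quantitative HTS, cell killing is estimated from loss of ATP-dependent luciferase light. Cells see five compound concentrations over a 48 h exposure.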
# Tov-21-G = assay: as above; conditions: Gynecologic cancer cell panel viability, ATPlite luminescence, 48 h; series mostly up to 57.5 µM
# Method in brief: as §1
# [9] = qHTS of pediatric cancer cell lines to identify multiple opportunities for drug repurposing: Primary screen for DAOY cells (AID 1347090)
# Method in brief: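 Cell viability, CellTiter-Glo luminescence; 500-1,000 cells/well, 8- or 11-point titration, 48 h compound exposure at 37 degrees C, 5% CO2. Controls: DMSO neutral, bortezomib 2.3 µM final as positive.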
# [10] = qHTS of pediatric cancer cell lines to identify multiple opportunities for drug repurposing: Primary screen for SK-N-MC cells (AID 1347093); conditions: SK-N-MC viability, CellTiter-Glo luminescence, 48 h; activity change, negative = cytotoxic: at 46 µM (top of the series);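 note: plate controls were DMSO neutral control for no effect and bortezomib for full effect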
# Method in brief: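 Metabolically active cells were quantified by ATP-dependent luminescence (CellTiter-Glo, 15 min at room temperature) following 48 h treatment. Cells had been plated at 500-1,000 per well and settled for 5 h beforehand.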
# [11] = qHTS of pediatric cancer cell lines to identify multiple opportunities for drug repurposing: Primary screen for SK-N-SH cells (AID 1347098); note: % is set by controls: 0 for no effect and ±100 for the full control effect; nearly all actives have a fitted effect of over 65% in size
# Method in brief: (§2)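 Cells (500-1,000/well) rested 5 h, then received compounds for 48 h; metabolically active cells were measured by CellTiter-Glo luminescence. Final concentrations spanned up to 46 µM (MIPE, 11-point) or 0.59 nM-46 µM (NPC, 8-point) in primary screens, 11-point in follow-ups.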
# [12] = qHTS of pediatric cancer cell lines to identify multiple opportunities for drug repurposing: Primary screen for OHS-50 cells (AID 1347103); conditions: OHS-50 osteosarcoma viability, CellTiter-Glo luminescence, 48 h; activity change, negative = cytotoxic: at 57.3 µM (top of the series);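 note: plate controls were DMSO neutral control for no effect and bortezomib positive control for full effect; nearly all actives have a fitted effect of over 40% in size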
# Method in brief: as §2
# [13] = qHTS of pediatric cancer cell lines to identify multiple opportunities for drug repurposing: Primary screen for control Hh wild type fibroblast cells (AID 1347106)
# Method in brief: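 Viability after 48 h compound treatment at 37C, 500-1,000 cells/well, read as ATP luminescence with CellTiter-Glo. Primary screens used 11-point (MIPE, 0.78 nM-46 µM) or 8-point (NPC, 0.59 nM-46 µM) final concentrations; follow-up screens used 11-point dilutions.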
# [14] = Primary qHTS for small molecule stabilizers of the endoplasmic reticulum resident proteome: Secreted ER Calcium Modulated Protein (SERCaMP) assay (AID 1508630); conditions: SH-SY5Y GLuc-SERCaMP (Gaussia luciferase released on ER calcium loss) secretion, thapsigargin, luminescence; activity change, negative = inhibition: at 38.4 µM (top of the series) unless noted; note: potency is the fitted concentration of half-maximal effect
# Method in brief: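 GLuc-SERCaMP-expressing SH-SY5Y cells, pretreated 16 h with compound, are challenged with thapsigargin to empty ER calcium stores; after 4 h, coelenterazine is added directly to the medium and luminescence is imaged.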
# [15] = A High-Content qHTS Against Drug Library for the Identification of Small Molecules that Inhibit DYT1 Early Onset Primary Dystonia-Associated Cell Pathology (AID 1645839; calls by dose curve)
# Method in brief: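 In this high-content image screen, delE TorsinA mislocalization in inducible Flp-In 293 cells is scored as %pathology, with cell count serving as the counterscreen. Compound exposure lasts 48 h under tetracycline induction in reduced-serum medium.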
# [16] = Primary redox qHTS assay for identification of artifact compounds. (AID 1845223); note: potency is the fitted concentration of half-maximal effect
# Method in brief: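 Amplex Red (25 uM) and HRP (250 mU/mL) in HBSS, with compounds for 15 min, then 250 uM DTT for 30 min, room temperature, dark. Fluorescence 525/598 nm read; normalized to DMSO and 10 uM DA3003; Hill fit.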
# SKOV3 = assay: Primary qHTS to identify gynecologic anti-cancer compounds using libraries of approved drugs and bioactive compounds (AID 1345084); conditions: Gynecologic cancer cell panel viability, ATPlite luminescence, 48 h; series mostly up to 57.5 µM; note: % is set by controls: 0 for no effect and ±100 for the full control effect; nearly all actives have a fitted effect of over 55% in size
# Method in brief: as §1
# [17] = test system: Zika virus NS2B-NS3 protease (unlinked complex); assay: Primary screen GU Rhodamine qHTS for Zika virus inhibitors: Unlinked NS2B-NS3 protease assay (AID 1347159); conditions: Recombinant ZIKV NS2B-NS3 protease, Rhodamine110 substrate fluorescence; activity change, negative = inhibition: at 107 µM (top of the series); note: potency is the fitted concentration of half-maximal effect; nearly all actives have a fitted effect of over 60% in size
# Method in brief: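 A qHTS format was used, with compound concentrations ranging up to 114 microM. Each compound was preincubated with 25 nM NS2B-NS3 protease, and the substrate was then added at 1.5 microM. Curves were fitted with a 4-parameter Hill model.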
# Tags give direction and shape of the fitted curve.
compound,measurement,setting,value
Cc1ccn(-c2cc(Cl)ccc2[C@@H](Oc2cc(-c3ccc(C[C@H](N)C(=O)O)cc3)nc(N)n2)C(F)(F)F)n1,Potency,[1],active: 22.4 µM
same,Potency,[2],"inconclusive [inhibitor, full curve, poor fit]"
same,Potency,[3],active: 28.2 µM
same,Potency,[4],active: 20.8 µM
same,Potency,[5],"inconclusive [inhibitor, single point]"
same,Potency,[6],"inconclusive [inhibitor, single point]"
same,Potency,[7],"inconclusive [inhibitor, single point]"
same,Potency,[8],inactive
same,Potency,PA-1,inactive
same,Potency,Tov-21-G,inactive
Cc1cnc(NS(=O)(=O)c2ccc(N)cc2)nc1,Potency,[9],inactive
same,Potency,[10],inactive
same,Potency,[11],inactive
same,Potency,[12],inactive
same,Potency,[13],inactive
same,Potency,[14],"inconclusive [inhibitor, partial curve, poor fit]"
same,Potency,[15],inactive
same,Potency,[5],inactive
same,Potency,PA-1,inactive
O=C(OCc1cccc(O)c1O[C@@H]1O[C@H](CO)[C@@H](O)[C@H](O)[C@H]1O)C1(O)C(=O)C2C=CC1C1C=CC(=O)C(O)(C(=O)OCc3cccc(O)c3O[C@@H]3O[C@H](CO)[C@@H](O)[C@H](O)[C@H]3O)C21 (stereo not given in full),Potency,[16],"inconclusive [activator, single point]"
same,"activity change, negative = cytotoxicity",PA-1,inactive: -3.46% [at 11.6 µM]
same,"activity change, negative = cytotoxicity",SKOV3,inactive: 4.95% [at 11.6 µM]
COc1ccc(C(=O)OC2C3C=COC(OC4OC(CO)C(O)C(O)C4O)C3C3(CO)OC23)cc1OC (stereo not given),Potency,[17],"inconclusive [inhibitor, full curve, poor fit]"
same,Potency,[8],active: 4.12 µM
same,Potency,PA-1,inactive
